# Out of some 310,000 compounds screened, about 14,000 (4.5%) showed an effect of 50% or more. Effects have a minus sign here. This is one part of the list.
# Molecular target: human ether-à-go-go-related gene (hERG) potassium channel (human, UniProt Q12809)
# Experiment: primary screen, population patch clamp on CHO cells stably expressing hERG
# 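Also: peak tail current of the secondary pulse compared with the same well before compound.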
# Sequence of human ether-à-go-go-related gene (hERG) potassium channel (Q12809 whole entry, looked up): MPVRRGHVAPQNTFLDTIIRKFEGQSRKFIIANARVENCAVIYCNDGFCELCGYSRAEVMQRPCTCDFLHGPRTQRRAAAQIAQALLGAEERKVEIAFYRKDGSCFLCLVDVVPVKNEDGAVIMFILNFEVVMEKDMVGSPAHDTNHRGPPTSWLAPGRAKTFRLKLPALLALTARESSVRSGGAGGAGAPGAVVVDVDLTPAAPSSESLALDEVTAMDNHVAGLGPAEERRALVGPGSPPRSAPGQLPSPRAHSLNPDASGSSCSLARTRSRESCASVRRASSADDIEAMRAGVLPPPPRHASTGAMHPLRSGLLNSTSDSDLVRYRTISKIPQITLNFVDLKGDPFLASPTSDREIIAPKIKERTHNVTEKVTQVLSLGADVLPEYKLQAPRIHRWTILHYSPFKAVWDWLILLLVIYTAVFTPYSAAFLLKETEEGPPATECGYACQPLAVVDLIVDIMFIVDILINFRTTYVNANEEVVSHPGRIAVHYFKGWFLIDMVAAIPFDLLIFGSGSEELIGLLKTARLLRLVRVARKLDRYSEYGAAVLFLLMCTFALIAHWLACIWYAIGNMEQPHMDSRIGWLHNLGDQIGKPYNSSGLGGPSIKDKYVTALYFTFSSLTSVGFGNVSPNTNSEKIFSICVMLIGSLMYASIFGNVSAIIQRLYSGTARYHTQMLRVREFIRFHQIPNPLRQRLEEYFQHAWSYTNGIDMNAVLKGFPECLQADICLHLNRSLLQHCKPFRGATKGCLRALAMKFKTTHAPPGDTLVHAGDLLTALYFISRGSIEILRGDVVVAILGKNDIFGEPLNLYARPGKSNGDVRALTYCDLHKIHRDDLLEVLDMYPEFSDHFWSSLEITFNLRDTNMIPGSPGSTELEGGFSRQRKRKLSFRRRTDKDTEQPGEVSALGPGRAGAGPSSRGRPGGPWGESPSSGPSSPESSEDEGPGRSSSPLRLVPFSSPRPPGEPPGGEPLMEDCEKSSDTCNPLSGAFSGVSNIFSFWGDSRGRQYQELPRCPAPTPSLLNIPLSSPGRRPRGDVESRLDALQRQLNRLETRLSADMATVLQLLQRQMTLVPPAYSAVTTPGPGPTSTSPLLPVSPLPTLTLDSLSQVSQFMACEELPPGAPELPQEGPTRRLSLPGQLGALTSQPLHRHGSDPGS
row,Structure (SMILES),"hERG current change (%, negative = inhibition) at 10uM [%]"
1,C=C(c1ccccc1Cl)[n+]1ccccc1.F[B-](F)(F)F,22.5
2,C=CCNc1sc(C(=O)c2ccccc2)c(N)c1C#N,-4.18
3,COc1ccc(Cl)cc1NC(=O)c1oc(C)nc1C,2.05
4,Cc1cccc(Sc2c([N+](=O)[O-])ncn2C)n1,-2.61
5,O=C(O)CCSc1nnc(-c2cccnc2)n1-c1ccccc1,11.2
6,O=c1c(Oc2ccccc2F)coc2cc(OCc3cnn(-c4ccccc4)c3)ccc12,-55
7,O=C1CN(C(=O)CC2c3ccccc3-c3ccccc32)CC(=O)N1,0.273
8,O=C(NCC1CCCCC1)c1cc2ccccc2cc1O,-8.9
9,COc1ccc(CCNc2nc(=S)[nH]c3cc(OC)c(OC)cc23)cc1OC,8.84
10,CCc1ccc(OCCNC(=O)c2ccccc2SCc2ccccc2)cc1,4.85
11,CCC(C)(C)n1nnnc1C(c1cc2cc(C)ccc2[nH]c1=O)N1CCCc2ccccc21 (stereo not shown),-9.91
12,COC(=O)c1ccc(NC(=O)CCN2C(=O)CSC2=O)cc1,1.95
13,Cc1ccc(NC(=O)c2ccc([N+](=O)[O-])cc2)cc1S(=O)(=O)N(C)C,-39.6
14,COc1ccc(C(=O)c2c3ccccc3[n+]([O-])n2CCC(N)=O)cc1,13.1
15,COc1ccc(NC(=O)Cn2c(=O)n(CC3CCCO3)c(=O)c3cc(OC)c(OC)cc32)cc1OC (stereo not shown),-10.8
16,NC1=C(c2ccc(F)cc2)C(=O)CS1,11
17,COc1ccc(N(C(=O)c2ccco2)C(C(=O)NC2CCCC2)c2ccc(N(C)C)cc2)cc1OC (stereo not shown),4.42
18,CC1Cc2ccccc2N1C(=O)CCS(=O)(=O)c1cccc2nonc12 (stereo not shown),-1.46
19,CCCCCC1CC(/C(C)=N/NC(N)=O)OC1=O (stereo not shown),-7.05
20,O=C(O)C(C(=O)/C=C/c1ccco1)=C1SCCS1,10.4

row,Structure (SMILES),"hERG current change (%, negative = inhibition) at 10uM [%]"
1,Cc1ccc(-n2nnc(-c3cnc4ccccc4c3)n2)cc1,21.7
2,O=C1CC(c2ccco2)Sc2ccccc2N1 (stereo not shown),0.559
3,COC(=O)c1ccccc1NC(=O)c1cc(-c2ccc(C)cc2)on1,-6.7
4,CCn1c(SCC(=O)NC2CCCCC2)nnc1-c1ccccc1F,8.53
5,O=S1(=O)CCOCCCN1Cc1ccccc1F,18.1
6,COc1cccc(CC2(CO)CCCN(Cc3cn[nH]c3C3CCCCC3)C2)c1 (stereo not shown),-45.1
7,Cc1cc(OCC(=O)NCC(c2ccc(F)cc2)N2CCOCC2)ccc1Cl (stereo not shown),-38.6
8,CCCC(=O)N(CCN1CCOCC1)c1nc2c(F)cc(F)cc2s1.Cl,-26.6
9,COC(=O)C1CCN(C(=O)CSc2nc3ccc(OC)cc3[nH]2)CC1,28.1
10,CN=C1c2cc3cc(OC)ccc3n2CCN1C.Cl,-53
11,O=C(COC(=O)COc1ccc(Br)cc1)Nc1ccc2c(c1)OCCO2,19.3
12,CC(C)N1CCC(=NNc2ccc([N+](=O)[O-])cc2S(=O)(=O)N2CCOCC2)CC1,-44.7
13,O=C(N/N=C/c1ccco1)c1cccc(NC(=O)c2ccccc2Cl)c1,-12.5
14,CSc1ccc(CN(C)C(C)C(=O)Nc2ccc(F)c(F)c2F)cc1 (stereo not shown),15.3
15,O=C1CSC(=S)N1c1ccc(F)c(Cl)c1,9.23
16,CC1CCC(NS(=O)(=O)c2ccc3c(c2)CC(=O)N3)CC1 (stereo not shown),18.2
17,CCCCNC(=S)N(C)/N=C/c1ccccc1C(=O)O,-3.88
18,O=C(Oc1ccccc1)N1CCN(C(=O)c2ccco2)CC1,13.5
19,O=C(Nc1ccon1)Nc1ccc(Cl)cc1Cl,23.7
20,O=C(O)CCSc1nc(C(F)(F)F)cc(=O)n1-c1ccccc1,15

row,Structure (SMILES),"hERG current change (%, negative = inhibition) at 10uM [%]"
1,O=C(Nc1cccc(Cl)c1N1CCCC1)c1ccc([N+](=O)[O-])o1,9.6
2,c1cc2c(cc1-n1cnnn1)OCO2,11.8
3,CCO[C@@H]1OC(C(=O)N2CCOCC2)=C[C@H](C(C)(C)C)[C@H]1CCCO,24.4
4,O=C(Nc1ccc(C(=O)NN2C(=O)c3ccccc3C2=O)cc1)c1ccccc1,-3.28
5,CSc1nc2ccc(NC(=O)c3ccc(Cl)s3)cc2s1,15.5
6,CC(=O)c1ccc(OCCN2CCOCC2)cc1.O=C(O)C(=O)O,1.35
7,CCN1CCN(C(=S)c2ccc(OC)cc2)CC1,-64.8
8,Cc1[nH+]csc1CCOC(=O)c1ccc([N+](=O)[O-])cc1.[Cl-],-35.4
9,N#Cc1c(SCC(=O)N2CCOCC2)nsc1SCC(=O)N1CCOCC1,6.03
10,CCOC(=O)c1ccc(NC(=S)Nc2cc(C)cc(C)n2)cc1,0.993
11,CCn1nc(NS(=O)(=O)c2ccc(F)cc2)c2cc3cccc(C)c3nc21,15
12,CCC(C)N(C(=O)CSc1nnc(COc2ccccc2F)n1N)C1CCS(=O)(=O)C1 (stereo not shown),4.4
13,CCOCC(=O)Nc1cc(S(=O)(=O)N2CCOCC2)ccc1N1CCCCC1,22
14,Cc1ccc[n+](-c2nc3ccccc3nc2[N-]S(=O)(=O)c2ccccc2)c1,20.1
15,Cc1cc(=O)oc2cc(OCC(=O)OCC(=O)NCc3ccc4c(c3)OCO4)ccc12,5.13
16,COC(=O)C(Cc1ccccc1)NC(=O)CCNC(=O)c1ccco1 (stereo not shown),20.4
17,CCCn1c(SCC(=O)NCCc2ccccc2)nnc1-c1cccnc1,-12.1
18,COc1ccccc1-c1nnc(NC(=O)c2cccc(N3C(=O)CCC3=O)c2)o1,7.53
